Structures are written as SMILES. Out of some 39,000 compounds screened, about 220 (0.56%) showed activity. The list shows a part of the results.
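Note: static incubation at 37 °C against the wild-type strain, values averaged over two biological replicates.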

The test relates to Escherichia coli K-12 BW25113. In words: relative growth (OD600 normalised to plate interquartile mean) (fraction); higher = less growth inhibition, active = 0.2 or less. The note with it: 50 µM; LB; incubation time: overnight (16-24 h).
Turning to `C[C@@H]1CN([C@H](C)CO)S(=O)(=O)c2ccc(C#Cc3cccnc3)cc2O[C@H]1CN(C)C(=O)CN(C)C`, the relative growth was inactive: 0.976.

Turning to `CCN(CC)/[N+]([O-])=N/OC`, the relative growth was inactive: 0.984. As for `COc1ccc([Si](C)(C)[C@H]2[C@H](CCO)O[C@@]3(C(=O)N(Cc4ccc(N5C(=O)c6ccccc6Oc6ccccc65)cc4)c4ccccc43)[C@@H]2C)cc1`, the relative growth was inactive: 1.03. With `CCc1c(Cl)c(O)c(Cl)c(O)c1C(=O)O[C@H]1[C@H](O)[C@H](OC)[C@H](OC/C2=C\C=C\C[C@H](O)/C(C)=C/[C@H](CC)[C@@H](O[C@@H]3OC(C)(C)[C@@H](OC(=O)C(C)C)[C@H](O)[C@@H]3O)/C(C)=C/C(C)=C/C[C@@H]([C@@H](C)O)OC2=O)O[C@@H]1C` the figure was inactive: 0.987. Consider `Cc1noc(C)c1S(=O)(=O)Nc1ccc2c(c1)CC(=O)N([C@@H](C)CO)C[C@@H](C)[C@@H](CN(C)C(=O)NC1CCCCC1)O2`, for which the relative growth is inactive: 0.988.

In the case of `C[C@@H]1CCCCO[C@@H](CN(C)CC2CCCCC2)[C@H](C)CN([C@@H](C)CO)C(=O)c2cc(NC(=O)c3ccccc3)ccc2O1`, the relative growth was inactive: 0.985. With `Cc1noc(C)c1NC(=O)Nc1ccc2c(c1)C(=O)N([C@H](C)CO)C[C@H](C)[C@H](CN(C)Cc1ccc(C(=O)O)cc1)OCCCC[C@@H](C)O2`, the relative growth was inactive: 0.999. On to `C[C@@H]1CCCCO[C@H](CN(C)Cc2ccncc2)[C@H](C)CN([C@@H](C)CO)C(=O)c2cc(NC(=O)C3CCCCC3)ccc2O1`, for which the relative growth was inactive: 1.04. Turning to `CO[C@H]1CN(C)C(=O)c2cc(NS(=O)(=O)c3cn(C)cn3)ccc2OC[C@@H](C)N(CCC(F)(F)F)C[C@@H]1C`, the relative growth is inactive: 1.03.

`O=c1c(O)c(-c2ccc(O)cc2)oc2cc(O)cc(O)c12`: the relative growth is inactive: 1.03.

Take `C[C@@H]1CN([C@@H](C)CO)S(=O)(=O)c2ccc(C#CCN(C)C)cc2O[C@H]1CN(C)Cc1ccccn1`: the relative growth is inactive: 1.03. As for `Cc1ccc(S(=O)(=O)Nc2ccc3c(c2)C(=O)N([C@@H](C)CO)C[C@@H](C)[C@H](CN(C)Cc2ccc(Cl)c(Cl)c2)OCCCC[C@@H](C)O3)cc1`, the relative growth is inactive: 1.04. In the case of `C[C@@H]1CN([C@H](C)CO)C(=O)c2cc(NC(=O)c3ccccc3)ccc2O[C@@H](C)CCCCO[C@H]1CN(C)C(=O)Nc1ccc(C(F)(F)F)cc1`, the relative growth is inactive: 1.01.

Take `CO[C@@H]1CN(C)C(=O)c2cc(NC(=O)c3cc(C)on3)ccc2OC[C@@H](C)N(C(=O)C2CCC2)C[C@H]1C`: the relative growth is inactive: 1.04. Regarding `C[C@@H]1CN([C@H](C)CO)C(=O)c2cc(NS(=O)(=O)c3ccc(F)cc3)ccc2O[C@@H]1CN(C)S(=O)(=O)c1ccccc1`, the relative growth is inactive: 1.05. With `O=C(C[C@@H]1CC[C@H]2[C@@H](COC[C@H](O)CN2Cc2cccc(C(F)(F)F)c2)O1)NCCc1ccncc1` the figure was inactive: 1.04; with `CC(C)(C)NCc1ccsc1`, inactive: 0.992. Consider `CC(=O)[C@]1(O)Cc2c(O)c3c(c(O)c2[C@@H](O[C@@H]2C[C@@H](N)[C@H](O)[C@@H](C)O2)C1)C(=O)c1c(O)cccc1C3=O`, for which the relative growth was inactive: 0.724. Take `CN1CCN(C(=O)[C@H]2[C@H](CO)[C@H]3Cn4c(ccc(C5=CCCC5)c4=O)[C@@H]2N3S(C)(=O)=O)CC1`: the relative growth is inactive: 0.995. Take `COc1ccc2c3c(n(c2c1)C)[C@@H](CO)N(C[C@]13CCN(CC1)C(=O)c1cnccn1)C(=O)c1cnccn1`: the relative growth was inactive: 1.02. Take `Cc1c(N2CCCC2)cc2c(c1-n1cccc1)C(C)(C)CC2(C)C`: the relative growth was inactive: 1.03. Consider `CO[C@@H]1CN(C)C(=O)c2cc(NC(=O)Nc3ccccc3)ccc2OC[C@H](C)N(C(=O)CN(C)C)C[C@H]1C`, for which the relative growth was inactive: 0.992.

As for `C[C@@H]1CN([C@H](C)CO)C(=O)c2cc(NC(=O)Cn3cnnn3)ccc2O[C@H]1CN(C)Cc1ccc(-c2ccccc2)cc1`, the relative growth is inactive: 1.02. With `CN(C)CCCN1c2ccccc2CCc2ccc(Cl)cc21.Cl` the figure was inactive: 0.875; with `COc1ccc(S(=O)(=O)Nc2ccc3c(c2)C(=O)N([C@@H](C)CO)C[C@H](C)[C@H](CN(C)C(=O)NC2CCCCC2)OCCCC[C@@H](C)O3)cc1`, inactive: 0.993. On to `O=C1c2ccccc2[C@@]2(Cc3ccccc3N(C3CC3)C2=O)[C@H](c2ccc(CO)cc2)N1Cc1ccccc1Cl`, for which the relative growth was inactive: 0.984.

For `NC1CCN(C(=O)c2cc3ccccc3[nH]2)CC1`, the relative growth was inactive: 1. With `CC(=O)Nc1ccc(OC(=O)c2ccccc2O)cc1` the figure was inactive: 0.995; with `C[C@@H]1CN([C@@H](C)CO)C(=O)c2cc(NS(=O)(=O)c3ccc(Cl)cc3)ccc2O[C@@H](C)CCCCO[C@H]1CN(C)S(=O)(=O)c1ccc(Cl)cc1`, inactive: 1.04.

As to `CCCc1nc(C)c2c(=O)[nH]c(-c3cc(S(=O)(=O)N4CCN(CC)CC4)ccc3OCC)nn12.Cl`, the relative growth is inactive: 0.999.

For the compound `C[C@H]1CN([C@@H](C)CO)C(=O)c2cccc(NS(=O)(=O)c3cn(C)cn3)c2O[C@H]1CN(C)C(=O)NC1CCCCC1`, the relative growth is inactive: 0.994.

For `C[C@@H]1CN([C@H](C)CO)S(=O)(=O)c2ccc(-c3cccc(C(=O)N(C)C)c3)cc2O[C@H]1CN(C)C(=O)Cc1ccccn1`, the relative growth was inactive: 1.02. For `COc1ccc(NC(=O)Nc2ccc3c(c2)C(=O)N([C@@H](C)CO)C[C@@H](C)[C@@H](CN(C)C(=O)NC2CCCCC2)OCCCC[C@H](C)O3)cc1`, the relative growth was inactive: 1.03. Consider `COc1ccccc1C(=O)Nc1ccc2c(c1)C(=O)N(C)[C@H]1CC[C@@H](CC(=O)NCc3ccc(Cl)c(Cl)c3)O[C@@H]1CO2`, for which the relative growth was inactive: 1.03.

Turning to `CCOc1nc2ccccc2c(=O)n1CCO`, the relative growth was inactive: 0.962. On to `COc1ccc(S(=O)(=O)N(C)C[C@@H]2Oc3c(NC(=O)NC(C)C)cccc3C(=O)N([C@H](C)CO)C[C@H]2C)cc1`, for which the relative growth is inactive: 0.981. Consider `OCc1ccccc1O[C@@H]1O[C@H](CO)[C@@H](O)[C@H](O)[C@H]1O`, for which the relative growth is inactive: 0.985. With `C[C@H](CO)N1C[C@H](C)[C@H](CN(C)S(=O)(=O)c2ccc(F)cc2)Oc2ccc(NS(=O)(=O)c3ccc(F)cc3)cc2CC1=O`, the relative growth was inactive: 1.01. On to `CCCCC1C(=O)N(c2ccccc2)N(c2ccc(O)cc2)C1=O` (stereo not given), for which the relative growth was inactive: 0.866. As for `C[C@@H]1CN([C@H](C)CO)C(=O)c2cc(C#CC3(O)CCCC3)cnc2O[C@@H]1CN(C)C(=O)Cc1cccnc1`, the relative growth is inactive: 0.98. Take `C[C@@H]1CN([C@@H](C)CO)C(=O)c2cc(Br)cnc2O[C@H]1CN(C)Cc1ccc2c(c1)OCO2`: the relative growth is inactive: 0.997. `O=C(C[C@H]1C[C@H]2c3cc(NC(=O)c4ccc5c(c4)OCO5)ccc3O[C@H]2[C@@H](CO)O1)NCCN1CCCCC1`: the relative growth was inactive: 1.01. For `C=CCOC(=O)[C@@H]1[C@H]2C(=O)O[C@H](c3ccccc3)[C@H](c3ccccc3)N2[C@H](c2ccc(OCCOC(=O)[C@H]3C[C@H]4C(=O)N[C@@H](CCCC[N+](C)(C)C)C(=O)N4[C@H]3c3cccc(OCCO)c3)cc2)[C@@]12C(=O)Nc1ccc(I)cc12`, the relative growth is inactive: 1.08. In the case of `O=C(CCBr)N1CCN(C(=O)CCBr)CC1`, the relative growth is inactive: 0.981. Turning to `NCCCCCCNC(=O)[C@@H]1C[C@@H]2C(=O)N[C@@H](CCCCN)C(=O)N2[C@@H]1c1cccc(OCCO)c1`, the relative growth was inactive: 0.995.

In the case of `C[C@@H]1CCCCO[C@H](CN(C)Cc2ccc(C(F)(F)F)cc2)[C@@H](C)CN([C@@H](C)CO)C(=O)c2cc(NC(=O)Nc3ccc(C(F)(F)F)cc3)ccc2O1`, the relative growth is inactive: 1.02. For the compound `C[C@H](CO)N1C[C@H](C)[C@H](CN(C)S(=O)(=O)c2ccccc2)OCCCC[C@H](C)Oc2ccc(NC(=O)NC3CCCCC3)cc2C1=O`, the relative growth is inactive: 1.01. `COc1ccc(NC(=O)Nc2cccc3c2O[C@H](CN(C)Cc2ccc(Oc4ccccc4)cc2)[C@@H](C)CN([C@H](C)CO)C3=O)cc1`: the relative growth was inactive: 0.99.

For `Cl.Fc1ccc(C2CCNCC2COc2ccc3c(c2)OCO3)cc1` (stereo not given), the relative growth is inactive: 0.844. With `C[C@H](CO)N1C[C@H](C)[C@@H](CN(C)S(=O)(=O)c2cn(C)cn2)Oc2ccc(NC(=O)Cc3ccccc3)cc2CC1=O`, the relative growth is inactive: 1.01. As for `COc1ccc(OC)c([C@@H](O)CNC(=O)CN)c1`, the relative growth was inactive: 0.878. With `C[C@@H](O)C#Cc1ccc2c(c1)O[C@@H](CN(C)C(=O)Nc1ccccc1)[C@@H](C)CN([C@@H](C)CO)S2(=O)=O` the figure was inactive: 0.989. For `C[C@H]1CN([C@@H](C)CO)C(=O)c2cc(NC(=O)Cn3cnnn3)ccc2O[C@H]1CN(C)Cc1ccc(Oc2ccccc2)cc1`, the relative growth is inactive: 1.01.

For the compound `O[C@H]([C@H](O)[C@@H]1CO1)[C@H]1CO1`, the relative growth was inactive: 0.797. With `COc1ccc(S(=O)(=O)Nc2ccc3c(c2)C(=O)N([C@@H](C)CO)C[C@@H](C)[C@H](CN(C)C(=O)Nc2c(C)noc2C)OCCCC[C@@H](C)O3)cc1` the figure was inactive: 1; with `C[C@@H]1CN([C@@H](C)CO)C(=O)Cc2cc(NC(=O)CCCCCC(=O)Nc3ccccc3N)ccc2O[C@@H]1CN(C)S(=O)(=O)c1cn(C)cn1`, inactive: 0.982.

Consider `COc1cc(OC)c2ccc(=O)oc2c1`, for which the relative growth was inactive: 1.05. Turning to `C[C@H]1CN([C@@H](C)CO)C(=O)c2cc(/C=C/c3ccccc3)cnc2O[C@H]1CN(C)C(=O)CN1CCOCC1`, the relative growth is inactive: 1.01. As for `C[C@H](CO)N1C[C@H](C)[C@@H](CN(C)C(=O)Nc2ccc(F)cc2)Oc2c(NC(=O)c3nc4ccccc4s3)cccc2C1=O`, the relative growth was inactive: 0.988. Take `COc1ccc(S(=O)(=O)Nc2ccc3c(c2)C(=O)N([C@@H](C)CO)C[C@H](C)[C@@H](CN(C)S(=O)(=O)c2cccs2)O3)cc1`: the relative growth is inactive: 0.86.
